Some of the results follow. Single values are uncertain, as repeats are few or missing.
What follows are compounds tested on COLO800 (assay: cell count relative to DMSO control; melanoma cells; higher = more viable cells). Details: library dose: standard library concentration; 72 h.
In the case of `Cn1c(=O)n(-c2ccc(C(C)(C)C#N)cc2)c2c3cc(-c4cnc5ccccc5c4)ccc3ncc21` + C=CCn1c(=O)c2cnc(Nc3ccc(N4CCN(C)CC4)cc3)nc2n1-c1cccc(C(C)(C)O)n1 [MK1775] (first compound 0.02 µM, partner dose 0.1 µM), the cell count is reported as 43.3%.
In the case of `CC(C)C[C@H](NC(=O)[C@H](Cc1ccccc1)NC(=O)c1cnccn1)B(O)O` [Bortezomib] + O=c1cc(-c2cccc3c2Sc2ccccc2S3)oc(N2CCOCC2)c1 [KU55933] (first compound 0.005 µM, partner dose 5 µM), the cell count is reported as 44.1%.
In the case of `Cc1cc(Nc2cc(N3CCN(C)CC3)nc(/C=C/c3ccccc3)n2)n[nH]1` + O=C(O)c1ccc(-c2c[nH]c3ncc(-c4ccccc4)cc23)cc1C1CCCC1 [GSK650394] (first compound 0.2 µM, partner dose 0.8 µM), the cell count is reported as 64%.
In the case of `Cc1cc(Nc2cc(N3CCN(C)CC3)nc(/C=C/c3ccccc3)n2)n[nH]1` + Nc1cccc2c1CN(C1CCC(=O)NC1=O)C2=O [lenalidomide] (first compound 0.2 µM, partner dose 5 µM), the cell count is reported as 85.4%.
`Cn1c(=O)n(-c2ccc(C(C)(C)C#N)cc2)c2c3cc(-c4cnc5ccccc5c4)ccc3ncc21` + CS(=O)(=O)CCNCc1ccc(-c2ccc3ncnc(Nc4ccc(OCc5cccc(F)c5)c(Cl)c4)c3c2)o1 [lapatinib] (first compound 0.02 µM, partner dose 4 µM) was tested, and the cell count was 55.6%.
With `COc1ccc(C2=N[C@@H](c3ccc(Cl)cc3)[C@@H](c3ccc(Cl)cc3)N2C(=O)N2CCNC(=O)C2)c(OC(C)C)c1` [Nutlin-3] + CCCS(=O)(=O)Nc1ccc(F)c(C(=O)c2c[nH]c3ncc(Cl)cc23)c1F [PLX4720] (first compound 0.5 µM, partner dose 0.4 µM) the cell count was 66.3%.
In the case of `CC(C)C[C@H](NC(=O)[C@H](Cc1ccccc1)NC(=O)c1cnccn1)B(O)O` [Bortezomib] + C=CCn1c(=O)c2cnc(Nc3ccc(N4CCN(C)CC4)cc3)nc2n1-c1cccc(C(C)(C)O)n1 [MK1775] (first compound 0.005 µM, partner dose 0.1 µM), the cell count is reported as 83.1%.
`Cn1c(=O)n(-c2ccc(C(C)(C)C#N)cc2)c2c3cc(-c4cnc5ccccc5c4)ccc3ncc21` + CC(C)C[C@H](NC(=O)[C@H](Cc1ccccc1)NC(=O)c1cnccn1)B(O)O [Bortezomib] (first compound 0.02 µM, partner dose 0.005 µM) was tested, and the cell count was 80.5%.
In the case of `Cc1cc(Nc2cc(N3CCN(C)CC3)nc(/C=C/c3ccccc3)n2)n[nH]1` + Cc1cc([N+](=O)[O-])ccc1NS(=O)(=O)c1cc(Cl)ccc1Cl [FH535] (first compound 0.2 µM, partner dose 5 µM), the cell count is reported as 47.3%.
Compound `Cc1cn(-c2cc(NC(=O)c3ccc(C)c(Nc4nccc(-c5cccnc5)n4)c3)cc(C(F)(F)F)c2)cn1` [nilotinib] + COc1cc(N2CCC(N3CCN(C)CC3)CC2)ccc1Nc1ncc(Cl)c(Nc2ccccc2S(=O)(=O)C(C)C)n1 [NVP-TAE684] (first compound 1 µM, partner dose 0.4 µM) has a cell count of 39.7%.
`CC(C)C[C@H](NC(=O)[C@H](Cc1ccccc1)NC(=O)c1cnccn1)B(O)O` [Bortezomib] + O=C(O)C(=O)Nc1sc2c(c1C(=O)O)CCNC2 [TCS401] (first compound 0.005 µM, partner dose 8.33333 µM) showed a cell count of 88.6%.
In the case of `CC(C)C[C@H](NC(=O)[C@H](Cc1ccccc1)NC(=O)c1cnccn1)B(O)O` [Bortezomib] + CC(C)CCN1c2nc(Nc3cc(F)c(O)c(F)c3)ncc2N(C)C(=O)C1C [BID1870] (first compound 0.005 µM, partner dose 1 µM), the cell count is reported as 54.3%.
`Cc1cn(-c2cc(NC(=O)c3ccc(C)c(Nc4nccc(-c5cccnc5)n4)c3)cc(C(F)(F)F)c2)cn1` [nilotinib] + NC(=O)c1ccc(N(C(N)=O)c2c(F)cccc2F)nc1-c1ccc(F)cc1F [VX702] (first compound 1 µM, partner dose 2 µM) was tested, and the cell count was 84.3%.
For `CC(C)C[C@H](NC(=O)[C@H](Cc1ccccc1)NC(=O)c1cnccn1)B(O)O` [Bortezomib] + O=C(Nc1ccccc1)c1cc([N+](=O)[O-])ccc1Cl [GW9662] (first compound 0.005 µM, partner dose 10 µM), the cell count was 47.9%.
Compound `Cc1cn(-c2cc(NC(=O)c3ccc(C)c(Nc4nccc(-c5cccnc5)n4)c3)cc(C(F)(F)F)c2)cn1` [nilotinib] + Cn1c(=O)n(-c2ccc(C(C)(C)C#N)cc2)c2c3cc(-c4cnc5ccccc5c4)ccc3ncc21 [NVP-BEZ235] (first compound 1 µM, partner dose 0.02 µM) has a cell count of 63.2%.
In the case of `Cc1cc(Nc2cc(N3CCN(C)CC3)nc(/C=C/c3ccccc3)n2)n[nH]1` + CS(=O)(=O)CCNCc1ccc(-c2ccc3ncnc(Nc4ccc(OCc5cccc(F)c5)c(Cl)c4)c3c2)o1 [lapatinib] (first compound 0.2 µM, partner dose 4 µM), the cell count is reported as 38.9%.
`COc1ccc(C2=N[C@@H](c3ccc(Cl)cc3)[C@@H](c3ccc(Cl)cc3)N2C(=O)N2CCNC(=O)C2)c(OC(C)C)c1` [Nutlin-3] + COc1ccc(Cl)c(Nc2nc3ccccc3nc2NS(=O)(=O)c2cccc(NC(=O)C(C)(C)N)c2)c1 [XL147] (first compound 0.5 µM, partner dose 4 µM) was tested, and the cell count was 85%.
`COc1ccc(C2=N[C@@H](c3ccc(Cl)cc3)[C@@H](c3ccc(Cl)cc3)N2C(=O)N2CCNC(=O)C2)c(OC(C)C)c1` [Nutlin-3] + CN(c1ncccc1CNc1nc(Nc2ccc3c(c2)CC(=O)N3)ncc1C(F)(F)F)S(C)(=O)=O [PF562271] (first compound 0.5 µM, partner dose 0.4 µM) was tested, and the cell count was 91.9%.
`Cc1cc(Nc2cc(N3CCN(C)CC3)nc(/C=C/c3ccccc3)n2)n[nH]1` + COC(=O)c1sccc1S(=O)(=O)Nc1ccc(Nc2ccccc2)cc1OC [GSK0660] (first compound 0.2 µM, partner dose 5 µM) gave a cell count of 41.7%.
With `Cn1c(=O)n(-c2ccc(C(C)(C)C#N)cc2)c2c3cc(-c4cnc5ccccc5c4)ccc3ncc21` + COc1cc(N2CCC(N3CCN(C)CC3)CC2)ccc1Nc1ncc(Cl)c(Nc2ccccc2S(=O)(=O)C(C)C)n1 [NVP-TAE684] (first compound 0.02 µM, partner dose 0.4 µM) the cell count was 44.4%.
Work on `COc1ccc(C2=N[C@@H](c3ccc(Cl)cc3)[C@@H](c3ccc(Cl)cc3)N2C(=O)N2CCNC(=O)C2)c(OC(C)C)c1` [Nutlin-3] + O=C(CCCCCCC(=O)Nc1ccccc1)NO [vorinostat] (first compound 0.5 µM, partner dose 0.4 µM) yielded a cell count of 98.3%.

Reference: the supplement of paper PMC4604168 (melanoma cell lines)
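Further: cells treated in 1,536-well plates, then fixed and DAPI-stained, with nuclei counted from automated high-throughput microscope images.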
